From the supplement of paper PMC3334620
Over roughly 33,000 sequences, “E-score (-0.5 to 0.5)” has its median near -0.056; the highest 2% begin near 0.38. The list shows a part of the results.

Target: Stb4 (UniProt P50104)
Assay: PBM E-score (8-mer binding enrichment) (E-score (-0.5 to 0.5)); higher = stronger / more preferred TF binding; most listed sequences are background and not binding sites
Conditions: protein concentration: 200 nM; construct: GST-DNA-binding domain
Outline: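 Masliner-normalised scans of fluorescent anti-GST signal were the basis for scoring. That signal came from GST-tagged yeast transcription factors applied at about 100-200 nM to double-stranded universal all-10-mer Agilent arrays on fresh or once-stripped slides. Each ungapped eight-base word, pooled with its reverse complement, received an E-score from the Universal PBM Analysis Suite.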

Sequence | PBM E-score
ACTACTCC | 0.171
TCCTGGAA | -0.154
CCCACACC | -0.0519
GGTGTTCA | -0.00913
AGGTGACC | -0.247
AGCAGCAT | -0.179
CGAGCTGA | 0.195
AATCGAGC | -0.107
CTGACGGA | 0.139
ACACCAAG | -0.0984
CCAAGGGA | -0.271
CCGCGTAC | 0.129
AACTTCTG | -0.0541
ACCGACGC | 0.167
CCTTCACA | -0.247
CACGGCGA | -0.125
CGCACTGA | -0.0372
ACAGGACA | -0.0558
ACCCGCCG | 0.338
GCTAAGGA | -0.0617
CGACAGCG | 0.189
TACGAATA | -0.153
AGTATCGA | -0.072
ACACCCAA | -0.00959

Sequence | PBM E-score
GGACACTA | -0.0191
AGGCATTG | 0.029
ACTTTTGC | -0.212
GTACCTAC | -0.172
ACCTGTTA | -0.184
CTCACCGA | 0.143
AGACTAGC | -0.334
CTAGCGTA | -0.0278
AAGTTGCT | -0.0668
CTTCGGGC | 0.291
GGTACTAC | 0.0917
GCGAAGCA | 0.0182
CGCAGTTC | -0.0365
AGTAGCCC | 0.106
AGTGGCAT | -0.0624
CCACTAAG | -0.0818
TATTGGGA | -0.178
GGAGGACC | 0.0144
AGATTTTA | -0.0136
AGACTCAG | -0.149
AGGACTGC | -0.292
CACCGATG | -0.0266
CCCGATTA | 0.291
CTGCACAG | -0.0816

Sequence | PBM E-score
CGGACTAA | 0.225
AGTTTTGC | -0.00155
TAGCTAAA | -0.0773
GGGAAGAC | 0.106
AGGGATGG | -0.174
CACACCAG | -0.227
ACGACGCA | -0.0583
AATCCCCA | -0.157
ACCTTTGA | -0.103
GCAATCGA | -0.00458
ATTACGCG | 0.056
ACGTCATG | -0.195
CGGGTAAC | 0.393
ACCAGCGA | -0.0461
ATCCTCAA | 0.115
CAGCCGCA | -0.0661
GAATTCAC | -0.0439
GTATCCAA | -0.0398
AAATTAGA | -0.0616
CTCGTTGA | -0.247
TCCAATCA | -0.0146
CACCGGAA | 0.412
CCATGTGA | -0.167
ATTGACAG | -0.0183

Sequence | PBM E-score
GAAAGTCC | 0.0828
TAAAGAAA | 0.076
AGCTACGC | -0.143
ACGAACGC | -0.15
ACGTTAGG | -0.22
ATCACCAG | -0.0727
GGTAGTCA | -0.0705
ACTGAAAA | -0.00443
CGCGGATA | 0.4
ACGCCTCG | 0.0824
CTTAGCTA | -0.128
CTTCTCTC | -0.135
ACAAGGGT | -0.0844
GGAACTCA | 0.207
AGTAGCAC | -0.0343
TCATGGAA | 0.033
ACATGGGT | 0.00817
TCATAGGA | -0.155
CTGACCGC | 0.151
AAGGATAG | 0.00922
ACGGATCT | 0.28
GTGGGCGA | -0.178
